Measurements reported in the supplement of paper PMC12217912.
Some of the results follow. The full chains were built here from the parent and the listed change. Values near 0.05 are background.

B1: TEV protease; numbered along this chain (parent)
chain: MGESLFKGPRDYNPISSSICHLTNESDGHTTSLYGIGFGPFIITNKHLFRRNNGTLVVQSLHGVFKVKDTTTLQQHLVDGRDMIIIRMPKDFPPFPQKLKFREPQREERICLVTTNFQTKSMSSMVSDTSCTFPSGDGIFWKHWIQTKDGQCGSPLVSTRDGFIVGIHSASNFTNTNNYFTSVPKNFMELLTNQEAQQWVSGWRLNADSVLWGGHKVFMVKPEEPFQPVKEATQL

Variants of: B1
Assay: raw area under fraction-flipped curve 0-4 h after induction (AUC4h, not background-subtracted), DNA-recorder readout of cleavage of the substrate (dimensionless); higher = more cleavage of the substrate by the protease variant
Settings: temperature: 34 °C; time window: 0-4 h after rhamnose induction
Experimental: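 In vivo DNA recorder in E. coli TOP10(DE3) ΔrhaA at 34 °C. Each TEVp single-site mutant (parent TEVp 0) is paired with a single-site variant of the 7-mer TEVs (canonical ENLYFQ|S). The substrate sits between flexible linkers in a Bxb1-sfGFP-TEVs-SsrA fusion, so cleavage stabilises Bxb1 and speeds flipping of a recombination array, read by NGS. The value is the raw area under the fraction-flipped curve over 0-4 h after rhamnose induction (AUC4h), with ≥20 reads per time point. It is not background-subtracted; inactive controls average about 0.047.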
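Note: Bxb1 expression induced with 0.2% (w/v) L-rhamnose at OD600 near 0.5, cultures sampled hourly, flipped fraction per protease–substrate barcode pair counted by paired-end Illumina sequencing.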

Variant | area with substrate ENLAFQS | area with substrate ENLCFQS | area with substrate ENLDFQS | area with substrate ENLFFQS | area with substrate ENLHFQS | area with substrate ENLIFQS | area with substrate ENLKFQS | area with substrate ENLNFQS | area with substrate ENLQFQS | area with substrate ENLRFQS | area with substrate ENLVFQS | area with substrate ENLWFQS | area with substrate ENLGFQS | area with substrate ENLLFQS | area with substrate ENLMFQS | area with substrate ENLPFQS | area with substrate ENLSFQS | area with substrate ENLTFQS | area with substrate ENLEFQS
H21C | 0.0636 | 0.0571 | 0.0711 | 0.0799 | 0.0633 | 0.0906 | 0.0765 | 0.0701 | 0.064 | 0.0698 | 0.067 | 0.0713 |  |  |  |  |  |  | 
H21Q | 0.0504 |  | 0.0709 | 0.0814 | 0.0701 | 0.0864 | 0.0798 | 0.0603 |  |  |  | 0.0519 | 0.0623 | 0.0774 | 0.0917 | 0.0435 | 0.0625 | 0.0649 | 
L22I | 0.044 | 0.079 | 0.0629 | 0.0987 |  | 0.094 | 0.0474 | 0.0644 | 0.0713 | 0.0703 | 0.083 | 0.0676 |  | 0.0858 |  | 0.0745 | 0.0659 | 0.0719 | 0.0633
L22P | 0.0463 | 0.0536 | 0.0549 | 0.0491 | 0.0458 | 0.0473 | 0.0452 | 0.0219 | 0.0467 | 0.0466 | 0.0528 | 0.0375 | 0.0428 | 0.0542 |  | 0.0499 | 0.0491 |  | 
T23C | 0.0623 |  | 0.0599 | 0.0891 | 0.0614 | 0.0831 | 0.0762 | 0.0811 | 0.0728 | 0.0789 | 0.0931 | 0.0781 |  | 0.061 |  | 0.0593 | 0.0773 |  | 0.0621
T23L | 0.0555 |  | 0.0562 | 0.114 | 0.0854 |  | 0.0728 | 0.0671 |  | 0.0685 |  | 0.0632 | 0.0663 | 0.0748 | 0.0682 | 0.0583 | 0.0615 |  | 0.0669
T23N | 0.0626 |  | 0.0638 | 0.0698 | 0.0639 | 0.0793 | 0.0798 | 0.0683 | 0.078 | 0.0834 |  | 0.0724 |  |  | 0.0758 | 0.0531 | 0.0408 |  | 
T23Y | 0.0592 | 0.0696 | 0.0677 | 0.0783 | 0.0614 | 0.0867 |  |  | 0.0711 | 0.0693 |  |  |  |  |  | 0.0617 | 0.064 | 0.0752 | 0.0714
N24E | 0.092 |  | 0.0618 | 0.0751 | 0.0468 | 0.0834 |  | 0.0616 | 0.0486 | 0.0403 |  | 0.0778 |  | 0.0714 |  | 0.066 | 0.0703 |  | 
E25G | 0.0607 | 0.0615 | 0.0612 | 0.074 | 0.0591 |  | 0.0731 | 0.0629 |  | 0.0617 | 0.0659 | 0.0588 | 0.0665 | 0.0694 |  |  | 0.0553 | 0.0718 | 
E25N | 0.0552 | 0.103 | 0.0691 | 0.0779 | 0.0706 | 0.0452 | 0.0804 | 0.0558 | 0.0428 | 0.07 |  |  |  | 0.0784 | 0.08 |  | 0.0745 |  | 
E25R | 0.0916 | 0.0972 | 0.0594 | 0.0952 | 0.0695 | 0.124 | 0.069 | 0.0644 | 0.0619 | 0.0454 |  | 0.0666 |  | 0.0924 | 0.0652 | 0.0586 | 0.0517 | 0.0645 | 
E25Y | 0.0589 | 0.0867 | 0.0646 | 0.0862 | 0.0726 | 0.0919 | 0.0811 | 0.0581 | 0.0716 | 0.0775 |  | 0.0565 |  | 0.0743 | 0.0656 | 0.0627 | 0.0609 |  | 0.0608
S26H | 0.0453 | 0.0581 |  | 0.0755 | 0.0503 | 0.0705 | 0.0667 | 0.063 | 0.0602 | 0.0657 |  |  |  | 0.0798 |  | 0.0235 | 0.0704 |  | 0.0616
S26P | 0.0666 | 0.0609 |  | 0.0611 | 0.0637 |  | 0.0599 | 0.0527 |  | 0.0472 |  | 0.0349 | 0.0632 | 0.057 |  | 0.0643 | 0.051 | 0.0576 | 0.0639
D27C | 0.0644 | 0.0982 | 0.0605 | 0.0684 | 0.069 |  | 0.0795 | 0.0558 | 0.0877 | 0.0829 | 0.091 | 0.0636 |  | 0.0707 |  | 0.041 | 0.0511 |  | 0.0568
D27W | 0.0502 | 0.0653 | 0.0561 | 0.0978 | 0.0714 |  | 0.0616 | 0.0703 |  |  |  | 0.0539 | 0.0671 | 0.0604 |  | 0.0546 | 0.0611 |  | 0.0659
G28I | 0.0937 | 0.0597 | 0.0505 | 0.0654 | 0.0624 |  | 0.068 | 0.0696 | 0.059 | 0.0587 | 0.0722 |  |  | 0.0766 |  | 0.0564 | 0.0637 | 0.0681 | 0.058
H29C | 0.0538 | 0.092 | 0.0723 | 0.106 | 0.0702 | 0.0915 | 0.0746 | 0.063 | 0.0745 | 0.0895 |  | 0.0433 | 0.0871 | 0.0757 | 0.0721 | 0.0583 | 0.0453 |  | 0.063
H29N | 0.0829 | 0.071 | 0.0606 | 0.0777 | 0.0716 | 0.0772 | 0.0805 | 0.0719 | 0.0696 | 0.0666 |  | 0.0706 |  | 0.0625 | 0.0727 | 0.0589 | 0.0884 | 0.0747 | 0.0557
T30Y | 0.0533 | 0.0729 | 0.0647 | 0.0872 | 0.0701 | 0.066 | 0.0768 | 0.0605 | 0.0617 | 0.0702 |  | 0.0622 |  | 0.0733 | 0.0656 | 0.0508 | 0.0395 |  | 0.0537
T31A | 0.0553 | 0.0745 | 0.0517 | 0.0822 | 0.0675 |  | 0.0585 | 0.0621 |  | 0.0758 |  |  |  |  | 0.0789 | 0.0533 | 0.0717 |  | 
L33I | 0.053 |  | 0.0615 | 0.048 | 0.0616 |  | 0.0532 |  | 0.0588 | 0.0647 |  | 0.0654 | 0.061 | 0.0604 | 0.0497 | 0.0657 | 0.0574 |  | 0.0603
I36M | 0.0652 | 0.067 | 0.0693 | 0.0981 | 0.0607 | 0.0753 | 0.0623 | 0.0644 |  | 0.0689 |  | 0.0945 | 0.0708 | 0.0701 | 0.0742 |  |  |  | 0.0448
I36S | 0.0453 | 0.0614 | 0.0676 | 0.0673 | 0.0677 | 0.0486 | 0.055 | 0.0546 | 0.0587 |  |  | 0.055 |  | 0.0633 |  | 0.0439 | 0.0536 | 0.0654 | 0.0536
